In the supplement of paper PMC12217912:
The list shows a part of the results. Sequences were assembled here from the parent chain. Values near 0.05 are background.

B1: TEV protease; numbered along this chain (parent)
chain: MGESLFKGPRDYNPISSSICHLTNESDGHTTSLYGIGFGPFIITNKHLFRRNNGTLVVQSLHGVFKVKDTTTLQQHLVDGRDMIIIRMPKDFPPFPQKLKFREPQREERICLVTTNFQTKSMSSMVSDTSCTFPSGDGIFWKHWIQTKDGQCGSPLVSTRDGFIVGIHSASNFTNTNNYFTSVPKNFMELLTNQEAQQWVSGWRLNADSVLWGGHKVFMVKPEEPFQPVKEATQL

Variants of: B1
Assay: raw area under fraction-flipped curve 0-4 h after induction (AUC4h, not background-subtracted), DNA-recorder readout of cleavage of the substrate (dimensionless); higher = more cleavage of the substrate by the protease variant
Details: temperature: 34 °C; time window: 0-4 h after rhamnose induction
Method: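 In vivo DNA recorder in E. coli TOP10(DE3) ΔrhaA at 34 °C. Each TEVp single-site mutant (parent TEVp 0) is paired with a single-site variant of the 7-mer TEVs (canonical ENLYFQ|S). The substrate sits between flexible linkers in a Bxb1-sfGFP-TEVs-SsrA fusion, so cleavage stabilises Bxb1 and speeds flipping of a recombination array, read by NGS. The value is the raw area under the fraction-flipped curve over 0-4 h after rhamnose induction (AUC4h), with ≥20 reads per time point. It is not background-subtracted; inactive controls average about 0.047.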
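Also: Bxb1 expression induced with 0.2% (w/v) L-rhamnose at OD600 near 0.5, cultures sampled hourly, flipped fraction per protease–substrate barcode pair counted by paired-end Illumina sequencing.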

| Variant | area with substrate ENLYFES | area with substrate ENLYFFS | area with substrate ENLYFHS | area with substrate ENLYFIS | area with substrate ENLYFKS | area with substrate ENLYFMS | area with substrate ENLYFNS | area with substrate ENLYFPS | area with substrate ENLYFRS | area with substrate ENLYFSS |
| --- | --- | --- | --- | --- | --- | --- | --- | --- | --- | --- |
| I110R | 0.0488 | 0.0544 | 0.0451 | 0.0551 | 0.0452 | 0.0617 | 0.0511 | 0.0627 | 0.0429 | 0.0966 |
| F117P | 0.0758 |  | 0.0804 | 0.0594 |  | 0.0747 | 0.0585 | 0.0485 | 0.0542 | 0.0614 |
| T119G | 0.057 |  |  |  |  |  |  |  |  |  |
| T129D | 0.0564 |  |  |  |  | 0.0688 | 0.0703 | 0.0685 |  |  |
| C131W | 0.0767 | 0.0615 |  |  |  |  | 0.0596 | 0.0593 |  |  |
| P134R | 0.0493 |  | 0.0762 | 0.0608 | 0.0552 | 0.0621 |  | 0.0623 | 0.0537 |  |
| S135L | 0.0574 | 0.0714 |  |  | 0.0734 | 0.0445 | 0.0593 | 0.0568 | 0.0652 | 0.0809 |
| D137A | 0.094 | 0.0821 |  | 0.0438 |  |  | 0.0602 | 0.0399 |  |  |
| G138P | 0.0584 |  |  |  |  |  |  | 0.0586 | 0.0564 |  |
| G138W | 0.0594 |  |  | 0.0547 | 0.0557 | 0.0608 | 0.0809 |  | 0.0502 |  |
| F140S | 0.0618 |  | 0.0477 | 0.0557 | 0.0625 | 0.0536 | 0.0312 | 0.0516 |  |  |
| H143N | 0.0509 | 0.0624 |  | 0.0319 |  | 0.0563 |  |  |  | 0.046 |
| G153C | 0.0576 | 0.0581 | 0.054 | 0.0533 | 0.0433 | 0.0558 |  | 0.0509 |  |  |
| S154I | 0.0669 | 0.0746 | 0.0636 |  | 0.0649 |  | 0.071 |  |  | 0.101 |
| S158L | 0.0473 |  | 0.0541 | 0.0409 | 0.0507 |  | 0.0545 |  |  | 0.0713 |
| F163A | 0.0679 |  |  |  |  |  | 0.0599 |  |  |  |
| F163P | 0.0554 |  |  |  | 0.0587 | 0.0622 | 0.0614 |  |  |  |
| I164V | 0.0688 |  | 0.0535 |  |  |  |  | 0.0591 |  |  |
| V165L | 0.065 |  | 0.0605 | 0.0479 |  |  |  |  |  |  |
| S171K | 0.0834 |  |  | 0.0535 | 0.0608 | 0.0666 |  |  | 0.0525 |  |
| N177T | 0.0657 |  | 0.0586 | 0.0378 |  | 0.0835 |  | 0.0557 | 0.055 |  |
| Y179D | 0.0506 |  |  |  |  | 0.0423 |  | 0.0531 |  |  |
| T181C | 0.0625 |  |  | 0.0363 |  |  |  |  |  |  |
| T181K | 0.0573 | 0.0556 | 0.0557 |  | 0.0596 | 0.0533 |  | 0.0696 |  | 0.0565 |

| Variant | area with substrate ENLYFES | area with substrate ENLYFFS | area with substrate ENLYFHS | area with substrate ENLYFIS | area with substrate ENLYFKS | area with substrate ENLYFMS | area with substrate ENLYFNS | area with substrate ENLYFPS | area with substrate ENLYFRS | area with substrate ENLYFSS |
| --- | --- | --- | --- | --- | --- | --- | --- | --- | --- | --- |
| K185L | 0.0693 | 0.0642 | 0.0755 |  |  | 0.0659 | 0.0732 |  | 0.0669 | 0.077 |
| N186F | 0.073 |  |  | 0.0384 |  | 0.0652 |  | 0.0689 |  |  |
| M188R | 0.073 | 0.0738 |  | 0.0484 | 0.0693 |  |  | 0.0571 | 0.0588 |  |
| L190D | 0.058 | 0.0321 |  | 0.0621 |  | 0.0451 | 0.0504 |  |  | 0.0624 |
| L190F | 0.0648 |  |  | 0.0489 | 0.0558 | 0.0662 |  |  |  |  |
| L190N | 0.0599 | 0.0609 |  | 0.0617 |  |  |  | 0.0539 | 0.0489 |  |
| N193K | 0.0771 |  |  | 0.0642 |  |  |  |  | 0.0308 |  |
| E195S | 0.0637 | 0.0695 |  | 0.0444 |  | 0.0653 |  | 0.0584 | 0.053 |  |
| V200D | 0.0587 | 0.07 |  | 0.0569 | 0.0458 | 0.057 |  | 0.0586 |  |  |
| S201Q | 0.0607 | 0.0642 |  | 0.0527 |  |  | 0.0485 | 0.0482 |  | 0.0588 |
| W203D | 0.0522 | 0.0658 |  | 0.0565 | 0.0792 | 0.0608 |  | 0.0603 |  |  |
| N206P | 0.0793 |  |  | 0.0585 | 0.0828 | 0.076 |  | 0.0736 |  |  |
| W212A | 0.0491 |  |  |  |  | 0.051 |  |  |  |  |
| W212N | 0.0788 |  |  | 0.0552 |  |  |  |  |  |  |
| G213T | 0.1 | 0.0854 | 0.0696 | 0.0598 | 0.0641 | 0.0604 |  |  | 0.0701 |  |
| G214W | 0.0461 |  | 0.0595 | 0.074 |  |  |  |  |  |  |
| V217E | 0.0577 |  |  | 0.0496 |  | 0.0538 | 0.0643 | 0.0736 | 0.0586 |  |
| V217L | 0.0654 |  |  | 0.0511 | 0.0631 | 0.0705 |  |  |  |  |
| P222L | 0.0557 |  |  | 0.0743 | 0.0626 | 0.062 |  | 0.0625 | 0.0559 | 0.0679 |
| V229D | 0.0684 |  |  | 0.051 | 0.0752 | 0.0616 | 0.0626 |  | 0.0527 | 0.0674 |
| K230A | 0.0684 | 0.0769 |  | 0.056 |  | 0.0625 | 0.0632 | 0.0597 |  | 0.052 |
| T233P | 0.0499 | 0.0672 |  | 0.0289 | 0.0652 |  |  |  |  |  |
| L235C | 0.0617 | 0.0791 |  | 0.0549 | 0.0854 | 0.0455 |  |  |  |  |

Same assay, conditions: temperature: 34 °C; time window: 0-4 h after rhamnose induction

| Variant | area with substrate ENLYFVS | area with substrate ENLYFWS | area with substrate ENLYFTS | area with substrate ENLYFLS | area with substrate ENLYFGS | area with substrate ENLYFYS |
| --- | --- | --- | --- | --- | --- | --- |
| I110R | 0.0439 |  |  |  |  |  |
| F117P | 0.0481 | 0.1 |  |  |  |  |
| T119G |  | 0.0458 |  |  |  |  |
| T129D |  |  | 0.0397 |  |  |  |
| C131W |  | 0.0572 |  | 0.0637 |  |  |
| P134R | 0.0565 | 0.0613 | 0.0655 | 0.0601 | 0.0559 |  |
| S135L | 0.0577 |  |  |  |  |  |
| D137A |  | 0.0549 |  |  |  | 0.0357 |
| G138P |  |  | 0.0658 |  |  |  |
| G138W | 0.0108 | 0.0509 | 0.0607 |  |  |  |
| F140S |  |  | 0.0598 | 0.0623 |  |  |
| H143N |  |  | 0.0505 |  |  |  |
| G153C | 0.0535 | 0.0384 | 0.0542 |  |  |  |
| S154I |  |  |  | 0.0682 | 0.0601 |  |
| S158L | 0.05 | 0.0444 | 0.0491 |  |  |  |
| F163P |  | 0.0658 | 0.0455 |  | 0.0696 | 0.0544 |
| V165L |  |  | 0.0449 |  |  |  |
| S171K |  |  |  | 0.0452 |  |  |
| N177T |  | 0.0555 |  |  | 0.0476 | 0.0444 |

| Variant | area with substrate ENLYFVS | area with substrate ENLYFWS | area with substrate ENLYFTS | area with substrate ENLYFLS | area with substrate ENLYFGS | area with substrate ENLYFYS |
| --- | --- | --- | --- | --- | --- | --- |
| T181K |  |  |  |  | 0.0485 |  |
| K185L | 0.0564 | 0.0395 | 0.0632 |  | 0.0661 |  |
| N186F | 0.0547 |  |  |  |  | 0.0806 |
| M188R |  |  | 0.0452 |  | 0.0538 | 0.0654 |
| L190D |  |  | 0.0528 | 0.0553 | 0.0591 | 0.0565 |
| L190F |  |  |  |  |  | 0.0476 |
| E195S |  |  | 0.0544 |  |  | 0.0815 |
| V200D | 0.0485 |  |  | 0.0669 | 0.06 |  |
| S201Q | 0.0627 |  |  |  | 0.0585 |  |
| W203D |  |  | 0.0429 |  |  |  |
| N206P |  | 0.0549 |  |  |  |  |
| W212A |  |  |  |  |  | 0.0614 |
| W212N |  | 0.0495 |  |  |  |  |
| G213T |  | 0.0531 | 0.0582 | 0.0597 |  | 0.0674 |
| G214W |  | 0.0529 |  |  |  |  |
| V217L |  | 0.0624 | 0.0581 | 0.0574 |  |  |
| V229D | 0.0591 | 0.0578 | 0.0756 | 0.0724 |  |  |
| T233P |  | 0.059 |  |  | 0.0464 |  |
| L235C | 0.0144 |  |  |  |  |  |
